According to publication PMC4336329 (PLoS ONE, 2015):
Hit rate of the full screen: of about 310,000 compounds, about 14,000 (4.5%) showed an effect of 50% or more. Effects have a minus sign here. This is one part of the list.

Each molecule was assayed against human ether-à-go-go-related gene (hERG) potassium channel (human, UniProt Q12809) (assay: primary screen, population patch clamp on CHO cells stably expressing hERG).
Procedure: Briefly, Chinese hamster ovary (CHO) cells stably expressing the hERG channel were dislodged from tissue culture flasks and dispensed into PPC plates. […] During the recording, background leak currents were estimated by a 100 ms step to -80 mV from an initial holding potential of -70 mV and subtracted from the subsequent current measurement. The campaign was conducted in two phases using slight differences in recording protocol. In the first phase, the initial voltage pulse used a 100 ms step to -30 mV from a holding potential of -70 mV, a 2 s conditioning step to +25 mV, and a 2 s test step to -30 mV. During the second phase of the screen, the potential during the conditioning step was raised to +45 mV. In both phases of the campaign, a secondary voltage pulse was applied using the same parameters as the second phase initial pulse. The initial and secondary pulses were applied in the absence of compound, and upon application of 1 μM and 10 μM test concentrations. […]
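Note: peak tail current of the secondary pulse compared with the same well before compound.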

Chain of human ether-à-go-go-related gene (hERG) potassium channel (Q12809 whole entry, looked up): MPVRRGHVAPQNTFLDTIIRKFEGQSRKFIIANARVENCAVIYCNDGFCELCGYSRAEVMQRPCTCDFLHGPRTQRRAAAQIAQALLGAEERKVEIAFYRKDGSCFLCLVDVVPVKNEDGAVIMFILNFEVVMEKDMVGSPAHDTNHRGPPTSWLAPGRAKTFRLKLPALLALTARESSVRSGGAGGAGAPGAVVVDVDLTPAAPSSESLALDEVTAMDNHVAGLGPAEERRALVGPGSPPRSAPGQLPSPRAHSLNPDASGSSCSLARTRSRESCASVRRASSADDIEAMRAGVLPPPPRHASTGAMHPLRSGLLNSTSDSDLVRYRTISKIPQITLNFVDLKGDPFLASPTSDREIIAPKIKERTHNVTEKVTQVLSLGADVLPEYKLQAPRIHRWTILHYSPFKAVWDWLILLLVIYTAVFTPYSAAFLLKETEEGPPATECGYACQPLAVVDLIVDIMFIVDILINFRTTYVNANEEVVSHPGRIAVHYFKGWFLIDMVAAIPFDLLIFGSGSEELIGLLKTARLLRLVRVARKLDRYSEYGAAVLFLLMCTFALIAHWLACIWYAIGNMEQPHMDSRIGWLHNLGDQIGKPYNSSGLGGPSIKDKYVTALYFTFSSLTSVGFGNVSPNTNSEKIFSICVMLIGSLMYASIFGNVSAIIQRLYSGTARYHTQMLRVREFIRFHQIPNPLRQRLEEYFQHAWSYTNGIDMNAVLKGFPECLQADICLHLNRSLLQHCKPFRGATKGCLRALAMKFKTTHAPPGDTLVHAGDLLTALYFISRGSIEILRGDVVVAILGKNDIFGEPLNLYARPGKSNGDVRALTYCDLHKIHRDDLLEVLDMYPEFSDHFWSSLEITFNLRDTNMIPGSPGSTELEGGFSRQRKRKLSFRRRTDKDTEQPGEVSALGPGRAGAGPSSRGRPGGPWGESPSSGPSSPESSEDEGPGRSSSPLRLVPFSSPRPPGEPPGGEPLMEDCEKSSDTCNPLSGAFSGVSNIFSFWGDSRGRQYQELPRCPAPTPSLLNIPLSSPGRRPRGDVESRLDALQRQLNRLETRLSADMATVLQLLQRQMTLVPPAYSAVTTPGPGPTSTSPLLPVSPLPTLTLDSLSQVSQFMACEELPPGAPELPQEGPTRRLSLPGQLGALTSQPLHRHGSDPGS

SMILES	hERG current change (%, negative = inhibition) at 10uM [%]
CS(=O)(=O)N1CCN(c2ncnc3c2cnn3-c2ccccc2)CC1	3.7
Nc1ccc(C(=O)OCc2nc3ccccc3[nH]2)cc1	14
O=C(O)CC/C(=N\NC(=O)CNC(=O)c1ccc(F)cc1)c1ccccc1	9.42
Cc1nn(-c2ccccc2)c(C)c1NC(=O)COC(=O)[C@@H](NC(=O)c1ccccc1)C(C)C	-2.46
CCOc1ccc(S(=O)(=O)N2CCCCC2)cc1NS(=O)(=O)c1cccs1	4.67
O=C(O)c1ccccc1C(=O)c1ccc(Oc2ccccc2)cc1	8.12
CCOc1ccc2nc(SCC(=O)N(C)C3CCS(=O)(=O)C3)[nH]c2c1 (centres unmarked)	5.53
COc1ccc(C2C(C(=O)c3ccco3)=C(O)C(=O)N2c2nnc(C)s2)cc1OC (centres unmarked)	8.49
COc1ccc(OCC(=O)NC(CC(=O)O)c2ccc(OC)c(OC)c2)cc1 (centres unmarked)	27.1
COc1ccc(C(=O)C2CCCN(C(=O)c3c4c(nn3C)CCCC4)C2)cc1F (centres unmarked)	-9.37
Cc1ccc(S(=O)(=O)NC(=NC2CCCCC2)c2ccc(F)cc2)cc1	-4.09
COC(c1ccccc1)c1nnc(CCC(=O)N(C)CCc2ccccc2)o1 (centres unmarked)	-13.1
C[N+](C)(C)CCNC(=O)c1c(O)c2c([nH]c1=O)CCCC2.[I-]	16.3
CC(=O)Nc1sc2c(c1C(c1ccccc1)N1CCOCC1)CCCC2 (centres unmarked)	10.7
O=C(COC(=O)c1cnccn1)c1ccc(Br)cc1	0.614
COC(=O)C1=C(c2ccc3ccccc3c2)C[C@@H]2CC[C@H]1N2C(=O)N1CCC(C)CC1	3.99
CC(=O)c1cn(-c2ccc(Cl)cc2)c(=O)n(Cc2ccc(Br)cc2)c1=O	-11.9
O=S(=O)(NCc1cccnc1)c1cccs1	10.9
CC(C)c1cc(=O)n2[nH]c(SCc3ccccc3)nc2n1	5.04

SMILES	hERG current change (%, negative = inhibition) at 10uM [%]
Cc1ccc(-n2nc(C)c3c(C)c(CCC(=O)O)c(C)nc32)cc1C	30.7
O=C(NC(n1ccc(=O)[nH]c1=O)C(Cl)(Cl)Cl)C12CC3CC(CC(C3)C1)C2 (centres unmarked)	-14.8
CCc1cccc(NC(=O)C2CC2c2ccccc2)c1 (centres unmarked)	14.5
CCCCCC(C)n1[nH]c(=O)cc1N (centres unmarked)	13
CN(Cc1ccccc1)C(=O)c1[nH]cnc1C(=O)Nc1nccs1	-4
Cc1ccc(C)c(N2CCN(C(=O)Nc3ccc4c(c3)N(C)C(=O)CS4)CC2)c1	-21.8
CCOC(=O)CC(NS(=O)(=O)c1ccc2[nH]cc(C(=O)O)c(=O)c2c1)c1ccc(OCC)c(OC)c1 (centres unmarked)	-1.02
Cc1ccc(Sc2ccc(C(=O)N(C)C)cc2[N+](=O)[O-])cc1	-22.1
Cc1cccc(OCC(O)CN2CCc3ccccc3C2)c1.Cl (centres unmarked)	-38
CC(C)(C)OC(=O)CNC(=O)c1nc[nH]c1C(=O)NCc1ccccc1	-22.8
C=CCn1c(SCc2c(C)noc2C)nnc1C1COc2ccccc2O1 (centres unmarked)	-9.87
Cn1c(-c2sc3cc(C(F)(F)F)cnc3c2-c2cccs2)n[nH]c1=S	18.1
COc1ccc2[nH]c(C)c(CCNCc3cn(C)c4ccccc34)c2c1.O=C(O)C(=O)O	-27.8
CC(C)CCNC(=O)c1ccc2c(c1)N(C)C(=O)c1ccccc1S2	-44.6
CCCCN(C)CCCNC(=O)CN1N=C(c2ccc(Cl)cc2)CCC1=O	-56.7
O=C(COc1ncnc2cc([N+](=O)[O-])ccc12)NCCc1ccc(Cl)cc1	-21.6
O=C(NCC1CCCO1)c1ccc(CSCc2cccc(F)c2)o1 (centres unmarked)	-7.59
Cc1ccc(S(=O)(=O)n2ccc3c2CCCC3=O)cc1	12.1
Cc1cc(C)cc(N=Cc2c(O)c3ccccc3oc2=O)c1	20.2

SMILES	hERG current change (%, negative = inhibition) at 10uM [%]
Cc1c(C(N)=O)sc(N)c1C(=O)OC(C)C	9.72
CCNC(=S)N(CCc1c(C)[nH]c2ccc(C)cc12)Cc1ccco1	-3.29
O=C(O)c1ccc(N2C(=O)CC(N3C(=O)/C(=C/c4ccc(Cl)cc4)SC3=S)C2=O)cc1 (centres unmarked)	9.83
Cc1ccc(C(=O)NC(C)c2ccccc2)o1 (centres unmarked)	-5.64
O=C(COC(=O)c1ccc[nH]c1=O)NCCc1ccc(F)cc1	-4.88
COc1ccc(C(=O)NC2CCN(C(=S)NCc3ccco3)CC2)cc1	-29.6
Nc1c(C(=O)Nc2ccc(Cl)c(C(=O)O)c2)sc2nc3c(cc12)CCCC3	-3.17
COc1cccc(C2(c3cccc(OC)c3)CC2C(=O)Nc2ccccc2Cl)c1 (centres unmarked)	14
C=CCc1cccc(CNc2nc3ccccc3n2C(C)C)c1O	-15.8
CC(=O)c1cccc(OCc2cc(C(=O)N3CCC(N4CCCCC4)CC3)no2)c1	-20.7
COc1ccccc1NC(=O)c1cnc(Nc2ccccc2OC)c2ccccc12	2.95
O=C(NCCc1ccccc1)c1coc(=O)c(Br)c1	5.91
Cc1nc2ccccc2n1S(=O)(=O)c1cc(C(=O)O)ccc1Cl	17
CC1CCN(C(=O)C2CCN(CC(C)c3ccccc3)CC2)CC1.O=C(O)C(=O)O (centres unmarked)	-13.5
CCN(CC(=O)NC1CCS(=O)(=O)C1)c1ccc(S(C)(=O)=O)cc1[N+](=O)[O-] (centres unmarked)	-7.45
CCCCn1nnnc1NCc1ccc(OC)c(OC)c1	18.3
CCC1CCC(NC(=O)Nc2cccc(OC)c2)CC1 (centres unmarked)	10.1
C[C@H](NC(=O)c1[nH]cnc1C(=O)Nc1ccccc1)C(=O)OC(C)(C)C	4.12
